Molecules are shown by their SMILES. Among all 39,000 compounds or so, about 220 (0.56%) showed activity. The list shows a part of the results.
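Note: static incubation at 37 °C against the wild-type strain, values averaged over two biological replicates.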

This experiment has as its system Escherichia coli K-12 BW25113. Put plainly: relative growth (OD600 normalised to plate interquartile mean) (fraction); higher = less growth inhibition, active = 0.2 or less. The settings on record: 50 µM; LB; incubation time: overnight (16-24 h).
In the case of `Cc1ccc(S(=O)(=O)Nc2ccc3c(c2)C(=O)N([C@@H](C)CO)C[C@H](C)[C@H](CN(C)S(=O)(=O)c2c(C)noc2C)O3)cc1`, the relative growth is inactive: 0.989. To `C[C@H](CO)N1C[C@H](C)[C@@H](CN(C)C(=O)NC2CCCCC2)OCCCC[C@H](C)Oc2ccc(NC(=O)Nc3ccc(F)cc3)cc2C1=O` belongs inactive: 0.921; to `Cc1ccc(S(=O)(=O)Nc2ccc3c(c2)C(=O)N([C@H](C)CO)C[C@H](C)[C@H](CN(C)S(=O)(=O)c2ccc(F)cc2)O3)cc1`, inactive: 1.02. To `CN(C)CCCNC(=O)C[C@@H]1C=C[C@@H](NC(=O)Cc2cccnc2)[C@@H](CO)O1` belongs inactive: 0.989; to `COc1ccc(NC(=O)N(C)C[C@H]2Oc3ccc(NS(=O)(=O)c4cn(C)cn4)cc3CC(=O)N([C@@H](C)CO)C[C@H]2C)cc1`, inactive: 0.985. To `C[C@@H]1CN([C@H](C)CO)C(=O)c2cc(C#CC3(O)CCCC3)cnc2O[C@H]1CN(C)S(C)(=O)=O` belongs inactive: 0.993; to `O=C(C[C@H]1CC[C@@H]2[C@H](COC[C@H](O)CN2Cc2ccccc2F)O1)N[C@H]1CCN(Cc2ccccc2)C1`, inactive: 1.03.

On to `C[C@H](CO)N1C[C@H](C)[C@@H](CN(C)Cc2ccc(Oc3ccccc3)cc2)Oc2ccc(NC(=O)Nc3cccc4ccccc34)cc2C1=O`, for which the relative growth was inactive: 1.01. Turning to `Cc1ccc(S(=O)(=O)N(C)C[C@@H]2OCCCC[C@H](C)Oc3ccc(NC(=O)CCC(F)(F)F)cc3C(=O)N([C@H](C)CO)C[C@H]2C)cc1`, the relative growth was inactive: 1.03. To `CCCCc1oc2ccccc2c1C(=O)c1cc(I)c(OCCN(CC)CC)c(I)c1` belongs inactive: 0.926; to `C[C@@H]1CCCCO[C@H](CN(C)C(=O)Nc2ccc(C(F)(F)F)cc2)[C@H](C)CN([C@@H](C)CO)C(=O)c2cc(NC(=O)C3CCCCC3)ccc2O1`, inactive: 1.06.

Regarding `COc1ccc(C#Cc2cnc3c(c2)C(=O)N([C@H](C)CO)C[C@H](C)[C@H](CN(C)Cc2ccncc2)O3)cc1OC`, the relative growth is inactive: 0.91. In the case of `OCCOCc1nnn2c1CN(c1ncccn1)CCC2` it was inactive: 0.962. `O=C(C1=C[C@H](c2ccc(Br)cc2)C[C@H](OCc2ccc(CO)cc2)O1)N1CCCCCCC1`: the relative growth is inactive: 1.04.

For `C[C@H](CO)N1C[C@H](C)[C@H](CN(C)C(=O)Nc2cccc(F)c2)Oc2cc(C#CC3(O)CCCC3)ccc2S1(=O)=O`, the relative growth was inactive: 0.962. To `Cc1noc(C)c1NC(=O)Nc1ccc2c(c1)C(=O)N([C@H](C)CO)C[C@@H](C)[C@@H](CN(C)C(=O)Nc1ccc(C(F)(F)F)cc1)O2` belongs inactive: 0.974; to `COc1ccc(NC(=O)Nc2ccc3c(c2)C(=O)N([C@@H](C)CO)C[C@@H](C)[C@H](CN(C)C(=O)Nc2cccc4ccccc24)OCCCC[C@@H](C)O3)cc1`, inactive: 1.03. To `Cc1ccc(S(=O)(=O)N(C)C[C@@H]2OCCCC[C@@H](C)Oc3ccc(NS(=O)(=O)c4ccc(F)cc4)cc3C(=O)N([C@H](C)CO)C[C@H]2C)cc1` belongs inactive: 1.02; to `C[C@H](CO)N1C[C@H](C)[C@@H](CN(C)S(=O)(=O)c2cccc(F)c2)Oc2ncc(C#CC3CC3)cc2C1=O`, inactive: 1.03. In the case of `O=C1C[C@]2(c3ccc([N+](=O)[O-])cc3)C(=O)N(CCN3CCOCC3)c3cc(CO)ccc3[C@H]2N1C1CCCCC1` it was inactive: 0.981; in that of `Cc1ccc(S(=O)(=O)Nc2ccc3c(c2)CC(=O)N([C@H](C)CO)C[C@H](C)[C@@H](CN(C)Cc2ccc(C(F)(F)F)cc2)O3)cc1`, inactive: 1.01. In the case of `Cc1ccccc1-c1ccc2c(c1)O[C@@H](CN(C)C(=O)Nc1ccc(C(F)(F)F)cc1)[C@H](C)CN([C@@H](C)CO)S2(=O)=O`, the relative growth was inactive: 0.976. Consider `Cc1noc(C)c1NC(=O)Nc1ccc2c(c1)CC(=O)N([C@H](C)CO)C[C@@H](C)[C@H](CN(C)S(C)(=O)=O)O2`, for which the relative growth is inactive: 1.01. To `COC(=O)CCc1c(c/2[nH]c1/C=C/1\N=C(/C=C/3\N=C(/C=C/4\N/C(=C2)[C@]2(C)[C@H](C(=O)OC)C(=CC=C42)C(=O)OC)C(=C3C=C)C)C(=C1CCC(=O)O)C)C` belongs inactive: 1.92.

Take `C=C/C=C/[C@H]1C(=C)CN([C@H](Cc2ccc(-n3cc(COc4ccccc4/C=C(C)/C=C/C(=O)NO)nn3)cc2)C(=O)OC)[C@@H]1[C@H](O)Cc1ccccc1`: the relative growth is inactive: 1.01. To `Cc1noc(C)c1NC(=O)Nc1cccc2c1O[C@H](CN(C)C(=O)Nc1cccc3ccccc13)[C@@H](C)CN([C@@H](C)CO)C2=O` belongs inactive: 0.905; to `COc1ccc(S(=O)(=O)N2CCO[C@@H]2CNC(=O)C(=O)NCc2ccncc2)cc1`, inactive: 1.01.

Consider `COc1ccc(S(=O)(=O)N(C)C[C@@H]2Oc3cc(C4=CCCC4)ccc3S(=O)(=O)N([C@@H](C)CO)C[C@H]2C)cc1`, for which the relative growth is inactive: 0.924. To `Cc1noc(C)c1S(=O)(=O)Nc1ccc2c(c1)C(=O)N([C@H](C)CO)C[C@H](C)[C@H](CN(C)Cc1ccc(C(F)(F)F)cc1)OCCCC[C@H](C)O2` belongs inactive: 1.03; to `O=C(NCc1ccc2c(c1)OCO2)[C@H]1[C@H](CO)[C@H]2Cn3c(cccc3=O)[C@@H]1N2Cc1cncnc1`, inactive: 0.986.

Turning to `COCC#Cc1ccc2c(c1)O[C@H](CN(C)S(=O)(=O)c1ccc(F)cc1)[C@H](C)CN([C@H](C)CO)S2(=O)=O`, the relative growth was inactive: 1.02. On to `C[C@H]1CN([C@@H](C)CO)C(=O)c2cccc(NC(=O)c3ccc(-c4nccs4)cc3)c2O[C@@H]1CN(C)CC1CCCCC1`, for which the relative growth was inactive: 1.04. `C[C@@H]1CN([C@H](C)CO)C(=O)c2cccc(NC(=O)Nc3ccccc3)c2O[C@@H]1CN(C)C(=O)Nc1ccc(C(F)(F)F)cc1`: the relative growth is inactive: 1.

Turning to `O=C(O)CCn1ccnc1`, the relative growth was inactive: 0.995. To `COc1ccc(S(=O)(=O)Nc2ccc3c(c2)CC(=O)N([C@@H](C)CO)C[C@@H](C)[C@H](CN(C)S(=O)(=O)c2c(C)noc2C)O3)cc1` belongs inactive: 1.05; to `O=C(O)CCC/C=C\C/C=C\C/C=C\C/C=C\CCCCCO`, inactive: 1. To `Cc1noc(C)c1NC(=O)Nc1ccc2c(c1)C(=O)N([C@@H](C)CO)C[C@@H](C)[C@@H](CN(C)S(=O)(=O)c1c(C)noc1C)O2` belongs inactive: 1.01. For the compound `O=C1O[C@@H]2C[C@H]1N(C(=O)[C@@H]1CC=CCC1)C2`, the relative growth was inactive: 0.964. To `C[C@@H]1CN([C@H](C)CO)C(=O)c2cc(NC(=O)Nc3cccc4ccccc34)ccc2O[C@H]1CN(C)Cc1ccccc1` belongs inactive: 0.979. For the compound `Cn1c(=O)c2c(nc(SCSc3nc4c(c(=O)n(C)c(=O)n4C)n3C)n2C)n(C)c1=O`, the relative growth is inactive: 0.966.

In the case of `Cc1nc2ccccc2n1Cc1ccc(Cl)cc1`, the relative growth is inactive: 0.544. To `COc1ccc(CN(C)C[C@@H]2OCCCC[C@@H](C)Oc3ccc(NS(=O)(=O)c4ccccc4)cc3C(=O)N([C@H](C)CO)C[C@@H]2C)cc1` belongs inactive: 1.03; to `CCN1CC(CCN2CCOCC2)C(c2ccccc2)(c2ccccc2)C1=O.Cl` (centres undefined), inactive: 1.09. To `CC(=O)Nc1cc2c(s1)CCCC2` belongs inactive: 0.97; to `Cc1noc(C)c1NC(=O)Nc1ccc2c(c1)C(=O)N([C@H](C)CO)C[C@@H](C)[C@@H](CN(C)S(=O)(=O)c1ccc(F)cc1)OCCCC[C@H](C)O2`, inactive: 0.98. On to `COc1ccccc1-c1ccc2c(c1)O[C@H](CN(C)C(=O)c1cccnc1)[C@H](C)CN([C@@H](C)CO)S2(=O)=O`, for which the relative growth is inactive: 1.03.

With `C[C@@H]1CCCCO[C@@H](CN(C)S(=O)(=O)c2cccs2)[C@H](C)CN([C@@H](C)CO)C(=O)c2cc(NC(=O)CCC(F)(F)F)ccc2O1`, the relative growth was inactive: 1.02.

On to `COC(=O)[C@H](Cc1ccccc1)N1CC2=C[C@@H](C3CC3)n3c(=O)n(C)c(=O)n3[C@H]2[C@@H]1[C@@H](O)CCn1cc(-c2cccc(/C=C/C(=O)NO)c2)nn1`, for which the relative growth is inactive: 1.03. In the case of `COc1ccc(S(=O)(=O)N(C)C[C@@H]2OCCCC[C@@H](C)Oc3ccc(NS(=O)(=O)c4cn(C)cn4)cc3C(=O)N([C@@H](C)CO)C[C@H]2C)cc1` it was inactive: 1.01; in that of `COc1ccc(S(=O)(=O)N2C[C@H](O)COC[C@H]3O[C@@H](CC(=O)N[C@H]4CCN(Cc5ccccc5)C4)CC[C@@H]32)cc1`, inactive: 0.987.

As for `Cc1cc(=O)oc2cc(O)ccc12`, the relative growth is inactive: 0.9.

For `COc1ccc(NC(=O)N(C)C[C@H]2Oc3ccc(NS(=O)(=O)c4c(C)noc4C)cc3C(=O)N([C@H](C)CO)C[C@H]2C)cc1`, the relative growth was inactive: 0.987.

On to `O=C(O)c1c(Br)c(Br)c(Br)c(Br)c1-c1c2ccc(=O)cc-2oc2cc(O)ccc12`, for which the relative growth is inactive: 0.951. In the case of `COc1ccc(NC(=O)N(C)C[C@@H]2Oc3cc(C#CCN(C)C)ccc3S(=O)(=O)N([C@H](C)CO)C[C@H]2C)cc1` it was inactive: 0.988; in that of `C[C@H]1CCCCO[C@H](CN(C)C(=O)c2ccncc2)[C@@H](C)CN([C@@H](C)CO)C(=O)c2cc(NS(C)(=O)=O)ccc2O1`, inactive: 0.996. To `CC(C)Oc1ccc(S(=O)(=O)N2CCN(c3ccc(-c4ncco4)c(OCC(=O)O)c3)CC2)cc1` belongs inactive: 0.944; to `C[C@@H]1CN([C@@H](C)CO)C(=O)Cc2cc(NS(=O)(=O)c3cn(C)cn3)ccc2O[C@@H]1CN(C)C(=O)Nc1ccc(F)cc1`, inactive: 0.94. In the case of `C[C@@H]1CN([C@@H](C)CO)C(=O)c2cccc(NC(=O)C3CCOCC3)c2O[C@@H]1CN(C)S(=O)(=O)c1ccc(Cl)cc1`, the relative growth is inactive: 1.04. For the compound `C[C@@H]1CCCCO[C@H](CN(C)C(=O)Nc2ccc(C(F)(F)F)cc2)[C@H](C)CN([C@H](C)CO)C(=O)c2cc(NS(=O)(=O)c3cccs3)ccc2O1`, the relative growth is inactive: 1.01.

The record behind these values is the supplement of paper PMC9446081.
